This is one part of the list.
Columns and labels:
Test in all cases: glycan array binding signal (z-score within array); higher = stronger binding
Settings in all cases: glycan notation: IUPAC condensed, linker removed
[1] = target: Neu5Ac(a2-3)Gal(b1-3)GalNAc
How it was run: (§1)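 Negative Z-scores can be read as non-binding. The Z-score is calculated within each array and then averaged across arrays of one protein sequence at different concentrations or buffers and across linkers. Arrays, 3228 in all, were curated from the Consortium for Functional Glycomics database and kept only where the protein sequence was available.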

[2] = target: Neu5Ac(a2-3)Gal(b1-3)GalNAc(b1-3)Gal(a1-4)Gal(b1-4)Glc
How it was run: as §1

[3] = target: Neu5Ac(a2-3)Gal(b1-3)GalNAc(b1-4)[Neu5Ac(a2-3)]Gal(b1-4)Glc
How it was run: as §1

[4] = target: Neu5Ac(a2-3)Gal(b1-3)GalNAc(b1-4)[Neu5Ac(a2-8)Neu5Ac(a2-3)]Gal(b1-4)Glc
How it was run: as §1

[5] = target: Neu5Ac(a2-3)Gal(b1-3)GalNAc6S
How it was run: as §1

[6] = target: Neu5Ac(a2-3)Gal(b1-3)GlcNAc
How it was run: as §1

[7] = target: Neu5Ac(a2-3)Gal(b1-3)GlcNAc(b1-2)Man
How it was run: as §1

[8] = target: Neu5Ac(a2-3)Gal(b1-3)GlcNAc(b1-2)Man(a1-3)[GlcNAc(b1-4)][Neu5Ac(a2-3)Gal(b1-3)GlcNAc(b1-2)Man(a1-6)]Man(b1-4)GlcNAc(b1-4)GlcNAc
How it was run: as §1

[9] = target: Neu5Ac(a2-3)Gal(b1-3)GlcNAc(b1-2)Man(a1-3)[Neu5Ac(a2-3)Gal(b1-3)GlcNAc(b1-2)Man(a1-6)]Man(b1-4)GlcNAc(b1-4)GlcNAc
How it was run: as §1

[10] = target: Neu5Ac(a2-3)Gal(b1-3)GlcNAc(b1-3)Gal(b1-3)GlcNAc
How it was run: as §1

[11] = target: Neu5Ac(a2-3)Gal(b1-3)GlcNAc(b1-3)Gal(b1-4)GlcNAc
How it was run: as §1

[12] = target: Neu5Ac(a2-3)Gal(b1-3)GlcNAc(b1-3)GalNAc
How it was run: as §1

[13] = target: Neu5Ac(a2-3)Gal(b1-3)GlcNAc(b1-4)Gal(b1-4)Glc
How it was run: as §1

[14] = target: Neu5Ac(a2-3)Gal(b1-3)GlcNAc(b1-6)GalNAc
How it was run: as §1

[15] = target: Neu5Ac(a2-3)Gal(b1-3)GlcNAc6S
How it was run: as §1

[16] = target: Neu5Ac(a2-3)Gal(b1-3)[Fuc(a1-4)]GlcNAc
How it was run: as §1

[17] = target: Neu5Ac(a2-3)Gal(b1-3)[Fuc(a1-4)]GlcNAc(b1-3)Gal(b1-3)[Fuc(a1-4)]GlcNAc
How it was run: as §1

[18] = target: Neu5Ac(a2-3)Gal(b1-3)[Fuc(a1-4)]GlcNAc(b1-3)Gal(b1-4)[Fuc(a1-3)]GlcNAc
How it was run: as §1

[19] = target: Neu5Ac(a2-3)Gal(b1-3)[GlcNAc(b1-6)]GalNAc
How it was run: as §1

[20] = target: Neu5Ac(a2-3)Gal(b1-3)[Neu5Ac(a2-6)]GalNAc
How it was run: as §1

[21] = target: Neu5Ac(a2-3)Gal(b1-3)[Neu5Ac(a2-6)]GlcNAc(b1-3)[Fuc(a1-3)[Gal(b1-4)]GlcNAc(b1-6)]Gal(b1-4)Glc
How it was run: as §1

[22] = target: Neu5Ac(a2-3)Gal(b1-3)]Neu5Ac(a2-3)Gal(b1-4)]GlcNAc
How it was run: as §1

Neu5Ac(a2-3)Gal(b1-4)Glc = target: Neu5Ac(a2-3)Gal(b1-4)Glc
How it was run: as §1

[23] = target: Neu5Ac(a2-3)Gal(b1-4)GlcNAc
How it was run: as §1

[24] = target: Neu5Ac(a2-3)Gal(b1-4)GlcNAc(b1-2)Man
How it was run: as §1

[25] = target: Neu5Ac(a2-3)Gal(b1-4)GlcNAc(b1-2)Man(a1-3)[GlcNAc(b1-4)][Neu5Ac(a2-3)Gal(b1-4)GlcNAc(b1-2)Man(a1-6)]Man(b1-4)GlcNAc(b1-4)GlcNAc
How it was run: as §1

[26] = target: Neu5Ac(a2-3)Gal(b1-4)GlcNAc(b1-2)Man(a1-3)[Neu5Ac(a2-3)Gal(b1-4)GlcNAc(b1-2)Man(a1-6)]Man(b1-4)GlcNAc(b1-4)GlcNAc
How it was run: as §1

[27] = target: Neu5Ac(a2-3)Gal(b1-4)GlcNAc(b1-2)Man(a1-3)[Neu5Ac(a2-3)Gal(b1-4)GlcNAc(b1-2)Man(a1-6)]Man(b1-4)GlcNAc(b1-4)[Fuc(a1-6)]GlcNAc
How it was run: as §1

[28] = target: Neu5Ac(a2-3)Gal(b1-4)GlcNAc(b1-2)Man(a1-3)[Neu5Ac(a2-6)Gal(b1-4)GlcNAc(b1-2)Man(a1-6)]Man(b1-4)GlcNAc(b1-4)GlcNAc
How it was run: as §1

[29] = target: Neu5Ac(a2-3)Gal(b1-4)GlcNAc(b1-2)[Neu5Ac(a2-3)Gal(b1-4)GlcNAc(b1-4)]Man(a1-3)[GlcNAc(b1-4)][Neu5Ac(a2-3)Gal(b1-4)GlcNAc(b1-2)[Neu5Ac(a2-3)Gal(b1-4)GlcNAc(b1-6)]Man(a1-6)]Man(b1-4)GlcNAc(b1-4)GlcNAc
How it was run: as §1

[30] = target: Neu5Ac(a2-3)Gal(b1-4)GlcNAc(b1-2)[Neu5Ac(a2-3)Gal(b1-4)GlcNAc(b1-4)]Man(a1-3)[GlcNAc(b1-4)][Neu5Ac(a2-3)Gal(b1-4)GlcNAc(b1-4)Man(a1-6)]Man(b1-4)GlcNAc(b1-4)GlcNAc
How it was run: as §1

[31] = target: Neu5Ac(a2-3)Gal(b1-4)GlcNAc(b1-2)[Neu5Ac(a2-3)Gal(b1-4)GlcNAc(b1-6)]Man(a1-6)[Neu5Ac(a2-3)Gal(b1-4)GlcNAc(b1-2)Man(a1-3)]Man(b1-4)GlcNAc(b1-4)GlcNAc
How it was run: as §1

[32] = target: Neu5Ac(a2-3)Gal(b1-4)GlcNAc(b1-2)[Neu5Ac(a2-3)Gal(b1-4)GlcNAc(b1-6)]Man(a1-6)[Neu5Ac(a2-3)Gal(b1-4)GlcNAc(b1-2)Man(a1-3)][GlcNAc(b1-4)]Man(b1-4)GlcNAc(b1-4)GlcNAc
How it was run: as §1

[33] = target: Neu5Ac(a2-3)Gal(b1-4)GlcNAc(b1-3)Gal
How it was run: as §1

[34] = target: Neu5Ac(a2-3)Gal(b1-4)GlcNAc(b1-3)Gal(b1-3)GlcNAc
How it was run: as §1

[35] = target: Neu5Ac(a2-3)Gal(b1-4)GlcNAc(b1-3)Gal(b1-4)GlcNAc
How it was run: as §1

[36] = target: Neu5Ac(a2-3)Gal(b1-4)GlcNAc(b1-3)Gal(b1-4)GlcNAc(b1-2)Man(a1-3)[Neu5Ac(a2-3)Gal(b1-4)GlcNAc(b1-3)Gal(b1-4)GlcNAc(b1-2)Man(a1-6)]Man(b1-4)GlcNAc(b1-4)GlcNAc
How it was run: as §1

[37] = target: Neu5Ac(a2-3)Gal(b1-4)GlcNAc(b1-3)Gal(b1-4)GlcNAc(b1-3)Gal(b1-4)GlcNAc
How it was run: as §1

[38] = target: Neu5Ac(a2-3)Gal(b1-4)GlcNAc(b1-3)Gal(b1-4)GlcNAc(b1-3)Gal(b1-4)GlcNAc(b1-2)Man(a1-3)[Neu5Ac(a2-3)Gal(b1-4)GlcNAc(b1-3)Gal(b1-4)GlcNAc(b1-3)Gal(b1-4)GlcNAc(b1-2)Man(a1-6)]GalNAc
How it was run: as §1

[39] = target: Neu5Ac(a2-3)Gal(b1-4)GlcNAc(b1-3)Gal(b1-4)GlcNAc(b1-3)GalNAc
How it was run: as §1

[40] = target: Neu5Ac(a2-3)Gal(b1-4)GlcNAc(b1-3)Gal(b1-4)GlcNAc(b1-3)[Neu5Ac(a2-3)Gal(b1-4)GlcNAc(b1-3)Gal(b1-4)GlcNAc(b1-6)]GalNAc
How it was run: as §1

[41] = target: Neu5Ac(a2-3)Gal(b1-4)GlcNAc(b1-3)Gal(b1-4)GlcNAc(b1-6)[Gal(b1-3)]GalNAc
How it was run: as §1

[42] = target: Neu5Ac(a2-3)Gal(b1-4)GlcNAc(b1-3)Gal(b1-4)[Fuc(a1-3)]GlcNAc
How it was run: as §1

[43] = target: Neu5Ac(a2-3)Gal(b1-4)GlcNAc(b1-3)GalNAc
How it was run: as §1

[44] = target: Neu5Ac(a2-3)Gal(b1-4)GlcNAc(b1-3)[Neu5Ac(a2-3)Gal(b1-4)GlcNAc(b1-6)]GalNAc
How it was run: as §1

B1: mCC1-Hexahis-Precomplexed (Mus musculus), P31809 (protein)
chain: MELASAHLHKGQVPWGGLLLTASLLASWSPATTAEVTIEAVPPQVAEDNNVLLLVHNLPLALGAFAWYKGNTTAIDKEIARFVPNSNMNFTGQAYSGREIIYSNGSLLFQMITMKDMGVYTLDMTDENYRRTQATVRFHVHPILLKPNITSNNSNPVEGDDSVSLTCDSYTDPDNINYLWSRNGESLSEGDRLKLSEGNRTLTLLNVTRNDTGPYVCETRNPVSVNRSDPFSLNIIYGPDTPIISPSDIYLHPGSNLNLSCHAASNPPAQYFWLINEKPHASSQELFIPNITTNNSGTYTCFVNNSVTGLSRTTVKNITVLEPVTQPFLQVTNTTVKELDSVTLTCLSNDIGANIQWLFNSQSLQLTERMTLSQNNSILRIDPIKREDAGEYQCEISNPVSVRRSNSIKLDIIFDPTQGGLSDGHHHHHH
glycan array binding signal (z-score) [1]: -0.136
glycan array binding signal (z-score) [2]: 0.113
glycan array binding signal (z-score) [3]: -0.082
glycan array binding signal (z-score) [4]: -0.182
glycan array binding signal (z-score) [5]: -0.203
glycan array binding signal (z-score) [6]: -0.041
glycan array binding signal (z-score) [7]: -0.218
glycan array binding signal (z-score) [8]: -0.017
glycan array binding signal (z-score) [9]: 0.199
glycan array binding signal (z-score) [10]: -0.117
glycan array binding signal (z-score) [11]: -0.162
glycan array binding signal (z-score) [12]: 0.321
glycan array binding signal (z-score) [13]: -0.198
glycan array binding signal (z-score) [14]: -0.291
glycan array binding signal (z-score) [15]: 1.47
glycan array binding signal (z-score) [16]: -0.285
glycan array binding signal (z-score) [17]: -0.219
glycan array binding signal (z-score) [18]: -0.183
glycan array binding signal (z-score) [19]: -0.253
glycan array binding signal (z-score) [20]: -0.167
glycan array binding signal (z-score) [21]: -0.19
glycan array binding signal (z-score) [22]: -0.25
glycan array binding signal (z-score) (Neu5Ac(a2-3)Gal(b1-4)Glc): 0.134
glycan array binding signal (z-score) [23]: -0.23
glycan array binding signal (z-score) [24]: -0.03
glycan array binding signal (z-score) [25]: 0.032
glycan array binding signal (z-score) [26]: -0.174
glycan array binding signal (z-score) [27]: -0.191
glycan array binding signal (z-score) [28]: -0.184
glycan array binding signal (z-score) [29]: -0.244
glycan array binding signal (z-score) [30]: -0.283
glycan array binding signal (z-score) [31]: -0.111
glycan array binding signal (z-score) [32]: -0.045
glycan array binding signal (z-score) [33]: -0.226
glycan array binding signal (z-score) [34]: -0.178
glycan array binding signal (z-score) [35]: -0.236
glycan array binding signal (z-score) [36]: 7.65
glycan array binding signal (z-score) [37]: -0.237
glycan array binding signal (z-score) [38]: 7.6
glycan array binding signal (z-score) [39]: -0.119
glycan array binding signal (z-score) [40]: 1.78
glycan array binding signal (z-score) [41]: 3.21
glycan array binding signal (z-score) [42]: -0.232
glycan array binding signal (z-score) [43]: -0.117
glycan array binding signal (z-score) [44]: -0.309

Source: the supplement of paper PMC8728848
